Data: the supplement of paper PMC8728848
The list shows a part of the results.

Columns and labels:
Test in all cases: glycan array binding signal (z-score within array); higher = stronger binding
Conditions in all cases: glycan notation: IUPAC condensed, linker removed
[1] = target: Gal(b1-4)GlcNAc(b1-2)Man(a1-3)[Gal(b1-4)GlcNAc(b1-2)Man(a1-6)]Man(b1-4)GlcNAc(b1-4)[Fuc(a1-6)]GlcNAc
Outline: (§1)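 Glycan array data came from 3228 arrays in the Consortium for Functional Glycomics database, and only arrays with an available protein sequence were kept. Glycan names were put into IUPAC-condensed notation, and columns mapping to the same glycan were averaged. The binding signal is a within-array Z-score, averaged across arrays of one protein sequence run at different concentrations or buffers and across linkers. A negative Z-score can be read as non-binding.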

[2] = target: Gal(b1-4)GlcNAc(b1-2)Man(a1-3)[Gal(b1-4)GlcNAc(b1-2)Man(a1-6)][Gal(b1-4)GlcNAc(b1-4)]Man(b1-4)GlcNAc(b1-4)[Fuc(a1-6)]GlcNAc
Outline: as §1

[3] = target: Gal(b1-4)GlcNAc(b1-2)Man(a1-3)[Gal(b1-4)GlcNAc(b1-2)Man(a1-6)][GlcNAc(b1-4)]Man(b1-4)GlcNAc(b1-4)[Fuc(a1-6)]GlcNAc
Outline: as §1

[4] = target: Gal(b1-4)GlcNAc(b1-2)Man(a1-3)[GlcNAc(b1-2)Man(a1-6)]Man(b1-4)GlcNAc(b1-4)GlcNAc
Outline: as §1

[5] = target: Gal(b1-4)GlcNAc(b1-2)Man(a1-3)[GlcNAc(b1-4)][Gal(b1-4)GlcNAc(b1-2)Man(a1-6)]Man(b1-4)GlcNAc(b1-4)GlcNAc
Outline: as §1

[6] = target: Gal(b1-4)GlcNAc(b1-2)Man(a1-3)[Man(a1-6)]Man(b1-4)GlcNAc(b1-4)GlcNAc
Outline: as §1

[7] = target: Gal(b1-4)GlcNAc(b1-2)Man(a1-6)Man(b1-4)GlcNAc(b1-4)GlcNAc
Outline: as §1

[8] = target: Gal(b1-4)GlcNAc(b1-2)Man(a1-6)[GlcNAc(b1-2)Man(a1-3)]Man(b1-4)GlcNAc(b1-4)GlcNAc
Outline: as §1

[9] = target: Gal(b1-4)GlcNAc(b1-2)Man(a1-6)[Man(a1-3)]Man(b1-4)GlcNAc(b1-4)GlcNAc
Outline: as §1

[10] = target: Gal(b1-4)GlcNAc(b1-2)[Gal(b1-4)GlcNAc(b1-4)]Man(a1-3)[Gal(b1-4)GlcNAc(b1-2)Man(a1-6)]Man(b1-4)GlcNAc(b1-4)GlcNAc
Outline: as §1

[11] = target: Gal(b1-4)GlcNAc(b1-2)[Gal(b1-4)GlcNAc(b1-4)]Man(a1-3)[Gal(b1-4)GlcNAc(b1-2)[Gal(b1-4)GlcNAc(b1-6)]Man(a1-6)]Man(b1-4)GlcNAc(b1-4)GlcNAc
Outline: as §1

[12] = target: Gal(b1-4)GlcNAc(b1-2)[Gal(b1-4)GlcNAc(b1-4)]Man(a1-3)[GlcNAc(b1-4)][Gal(b1-4)GlcNAc(b1-2)Man(a1-6)]Man(b1-4)GlcNAc(b1-4)GlcNAc
Outline: as §1

[13] = target: Gal(b1-4)GlcNAc(b1-2)[Gal(b1-4)GlcNAc(b1-4)]Man(a1-3)[GlcNAc(b1-4)][Gal(b1-4)GlcNAc(b1-2)[Gal(b1-4)GlcNAc(b1-6)]Man(a1-6)]Man(b1-4)GlcNAc(b1-4)GlcNAc
Outline: as §1

[14] = target: Gal(b1-4)GlcNAc(b1-2)[Gal(b1-4)GlcNAc(b1-6)]Man(a1-6)[Gal(b1-4)GlcNAc(b1-2)Man(a1-3)]Man(b1-4)GlcNAc(b1-4)GlcNAc
Outline: as §1

[15] = target: Gal(b1-4)GlcNAc(b1-2)[Gal(b1-4)GlcNAc(b1-6)]Man(a1-6)[Gal(b1-4)GlcNAc(b1-2)Man(a1-3)]Man(b1-4)GlcNAc(b1-4)[Fuc(a1-6)]GlcNAc
Outline: as §1

[16] = target: Gal(b1-4)GlcNAc(b1-2)[Gal(b1-4)GlcNAc(b1-6)]Man(a1-6)[GlcNAc(b1-4)][Gal(b1-4)GlcNAc(b1-2)Man(a1-3)]Man(b1-4)GlcNAc(b1-4)GlcNAc
Outline: as §1

[17] = target: Gal(b1-4)GlcNAc(b1-2)[Gal(b1-4)GlcNAc(b1-6)]Man(a1-6)[GlcNAc(b1-4)][Gal(b1-4)GlcNAc(b1-2)[Gal(b1-4)GlcNAc(b1-4)]Man(a1-3)]Man(b1-4)GlcNAc(b1-4)[Fuc(a1-6)]GlcNAc
Outline: as §1

[18] = target: Gal(b1-4)GlcNAc(b1-3)Gal(b1-3)GalNAc
Outline: as §1

B1: UEA-I (Ulex europaeus), P22972 (protein)
chain: SDDLSFKFKNFSQNGKDLSFQGDASVIETGVLQLNKVGNNLPDETGGIARYIAPIHIWNCNTGEVASFITSFSFFMETSANPKAATDGLTFFLAPPDSPLRRAGGYFGLFEDTKDNDSSYQTVAVEFDTIGSPVNFDDPGFPHIGIDVNRVKSINAERWNKRYGLNNVANVEIIYEASSKTLTASLTYPSDQTSISVTSIVDLKEILPEWVSVGFSGGTYIGRQATHEVLNWYFTSNLINTNS
**Q.** For B1, which “glycan array binding signal (z-score)” value [1] is on record?
**A.** -0.042

**Q.** What about the “glycan array binding signal (z-score)” value [2] of the same binder?
**A.** -0.208

**Q.** And the “glycan array binding signal (z-score)” value [3]?
**A.** -0.175

**Q.** And the “glycan array binding signal (z-score)” value [4]?
**A.** -0.203

**Q.** And the “glycan array binding signal (z-score)” value [5]?
**A.** -0.232

**Q.** What about the “glycan array binding signal (z-score)” value [6] of the same binder?
**A.** -0.193

**Q.** And the “glycan array binding signal (z-score)” value [7]?
**A.** -0.233

**Q.** What about the “glycan array binding signal (z-score)” value [8] of the same binder?
**A.** -0.155

**Q.** And the “glycan array binding signal (z-score)” value [9]?
**A.** -0.184

**Q.** And the “glycan array binding signal (z-score)” value [10]?
**A.** -0.165

**Q.** What about the “glycan array binding signal (z-score)” value [11] of the same binder?
**A.** -0.195

**Q.** What about the “glycan array binding signal (z-score)” value [12] of the same binder?
**A.** -0.241

**Q.** What about the “glycan array binding signal (z-score)” value [13] of the same binder?
**A.** -0.233

**Q.** And the “glycan array binding signal (z-score)” value [14]?
**A.** -0.025

**Q.** And the “glycan array binding signal (z-score)” value [15]?
**A.** -0.124

**Q.** And the “glycan array binding signal (z-score)” value [16]?
**A.** -0.195

**Q.** What about the “glycan array binding signal (z-score)” value [17] of the same binder?
**A.** -0.123

**Q.** What about the “glycan array binding signal (z-score)” value [18] of the same binder?
**A.** -0.271
